# Data from PubChem BioAssay AID686978 (National Center for Advancing Translational Sciences (NCATS), 2013).
# Hit rate of the full screen: of about 420,000 compounds, about 64,000 (15%) were called active. The inconclusive results got no clear call from the source; some entries with a clear call stand among them for comparison. Calls come from the whole dose curve; as a rule, active = well fitted inhibition curve with a large enough effect; inconclusive = small, poorly fitted or top-dose-only effect; inactive = flat fitted curve, though single readings scatter. Potencies of inconclusive entries are left out as doubtful fits.
# Experiment: qHTS for Inhibitors of human tyrosyl-DNA phosphodiesterase 1 (TDP1): qHTS in cells in absence of CPT; note: nearly all actives have a fitted effect of over 55% in size
# Settings: DT40 Tdp1-/- hTDP1 cells, no CPT, ATP luminescence, 48 h; activity change, negative = growth inhibition: at 46.2 µM (top of the series) unless noted
# Procedure, shortened: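 Growth kinetics read by CellTiter-Glo luminescence after ≥48 hr at 37 °C. Cells: DT40 Tdp1-/- stably carrying human TDP1, 400 per well, compound exposure in the absence of CPT (DMSO vehicle).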
# % is set by controls: 0 for no effect and ±100 for the full control effect; potency is the fitted concentration of half-maximal effect; tags give direction and shape of the fitted curve.
Structure (SMILES),Potency,"activity change, negative = growth inhibition"
COCc1ccc(C(=O)N2CCCC(Nc3ccc(C(C)C)cc3)C2)s1 (stereo unspecified),"inconclusive [inhibitor, single point]",–
Cc1cc(C)c2nc(N3CCCC(C(=O)NCCCN4CCOCC4)C3)sc2c1 (stereo unspecified),"inconclusive [inhibitor, single point]",–
CC(C)c1ccc(C2c3c(-c4ccccc4O)n[nH]c3C(=O)N2Cc2ccncc2)cc1 (stereo unspecified),"inconclusive [inhibitor, single point]",–
O=C(c1ccc(CS(=O)Cc2ccc(Cl)cc2)o1)N1CCN(c2ccccc2F)CC1 (stereo unspecified),"inconclusive [inhibitor, partial curve]",–
Cc1ccc(C(=O)N2CC(C(=O)O)C2)cc1,"inconclusive [inhibitor, single point]",–
COc1cc(OC)cc(-c2c(-c3cccs3)c3cc(-c4ccc(OC)c(F)c4)ccc3n2C)c1,active: 18.4 µM,–
COCOCCn1cc(CN2CCS(=O)(=O)N(Cc3ccc(-c4ccc(OC)cc4)cc3)C(CC(C)C)C2=O)nn1 (stereo unspecified),active: 10.3 µM,–
C=CCc1cccc(/C=N/NC(=O)CCCNc2ccc(C)cc2)c1O,active: 20.6 µM,–
CCN(CC)CCNC(=O)c1cc2c(=O)n(C)c3ccccc3c2n1C,"inconclusive [inhibitor, single point]",–
Cc1ccccc1OCCn1c(C)nc2ccccc21,"inconclusive [inhibitor, single point]",–
Cc1cc2n(n1)SC(Nc1ccccc1)N2 (stereo unspecified),–,inactive: 5.95%
Cc1nc(Cl)cc(N/N=C/c2ccc(O)cc2)n1,"inconclusive [inhibitor, single point]",–
CCNc1ncc2nc(-c3ccccc3)c(=O)n(CCC#N)c2n1,–,inactive: 9.86%
Cc1ccccc1-c1nnc(-c2ccccc2)o1,"inconclusive [inhibitor, single point]",–
CC(C)CC(C(=O)O)N(Cc1ccccc1)Cc1ccccc1 (stereo unspecified),–,inconclusive: -5.78% [inhibitor]
O=C(CC1NCCc2ccccc21)Nc1ccc(Cl)cc1 (stereo unspecified),"inconclusive [inhibitor, single point]",–
O=C([C@H](Cc1ccccc1)N1C(=O)c2ccccc2C1=O)N1CCOCC1,–,inactive: -13.1%
Cc1cccc(C)c1NC(=O)CN(C)C(=O)CCc1nc2sc3c(c2c(=O)[nH]1)CCCC3,"inconclusive [inhibitor, single point]",–
Cc1noc(C)c1COC(=O)COc1cccc2c1OC(C)(C)C2,–,inactive: -0.106%
Cc1ccn2c(Nc3ccc4c(c3)OCCO4)c(-c3cccs3)nc2c1,"inconclusive [inhibitor, partial curve]",–
Cc1ccc2c(c1)Cc1c(nc(-c3ccc(Cl)cc3)nc1SCC(=O)N1CCCCC1)O2,"inconclusive [inhibitor, single point]",–
C=CCNc1nc(NC(C)(C)CO)nc(OC)n1,–,inactive: 6.43%
Cc1ccc2onc(CNC(=O)Nc3cc(F)ccc3F)c2c1,"inconclusive [inhibitor, single point]",–
c1ccc(SCCCCNC2CCCC2)cc1,"inconclusive [inhibitor, single point]",–

Structure (SMILES),Potency,"activity change, negative = growth inhibition"
O=C(CSc1nc2ccccc2s1)Nc1ccc(N2CCOCC2)c(Cl)c1,active: 20.6 µM,–
Cc1ccc(Cl)cc1NC(c1ccc(F)cc1)c1nnc(-c2ccccc2)o1 (stereo unspecified),"inconclusive [inhibitor, single point]",–
CC(=O)N1CCc2c(sc3c2c(=O)n(CCc2ccccc2)c(=O)n3CC(=O)Nc2ccc(C)c(F)c2)C1,"inconclusive [inhibitor, single point]",–
Cn1c(C(=O)NCc2ccccn2)cc2c(=O)n(C)c3ccccc3c21,"inconclusive [inhibitor, partial curve]",–
Cc1cccc(C)c1NC(=O)C1(C)CN(S(C)(=O)=O)CC(=O)N1C1CC1 (stereo unspecified),–,inactive: 3.04%
CC(C)C12CN3CC(C(C)C)(CN(C1)C3c1ccccc1O)C2=O (stereo unspecified),"inconclusive [inhibitor, single point]",–
Cc1cccc(NS(=O)(=O)c2cc(C(=O)N3CCCCCC3)ccc2C)c1,"inconclusive [inhibitor, single point]",–
O=C(CN1CSCC1=O)N1CCN(S(=O)(=O)c2cc(C(F)(F)F)ccc2Cl)CC1,"inconclusive [inhibitor, single point]",–
Cc1ccnc(NCn2nnc3ccccc32)c1,"inconclusive [inhibitor, single point]",–
N#CCCN(CCCN1CCOCC1)CN1C(=O)c2ccccc2C1=O,–,inconclusive: -33.7% [inhibitor]
CCc1nc2c(OCCc3cccc(OC)c3)cccn2c1N(C)C(=O)c1cccs1,"inconclusive [inhibitor, single point]",–
O=C(CNc1cccc(C(F)(F)F)c1)N/N=C/c1cn(-c2ccccc2)nc1-c1ccccc1,"inconclusive [inhibitor, single point]",–
Fc1ccc(NC(=S)Nc2cccnc2)c(F)c1F,–,inactive: -24.4%
CN(CCOc1ccccc1)CC(=O)Nc1ccc(S(=O)(=O)N2CCCC2)cc1,"inconclusive [inhibitor, partial curve, poor fit]",–
Cc1cc(Nc2cccc([N+](=O)[O-])c2)c2ccccc2n1,"inconclusive [inhibitor, single point]",–
Cc1ccccc1-c1nc(NC2CCNCC2)c2ccccc2n1,active: 11.6 µM,–
Cc1ccc(NC(=O)CN(C)C(=O)c2ccccc2Sc2ccccc2C#N)cc1,active: 14.6 µM,–
COC(=O)[C@@]12C[C@@H](CC(=O)NCc3ccc(C)o3)C(=O)N(Cc3ccco3)C1=CCC(C)(C)C2,"inconclusive [inhibitor, single point]",–
O=C(NN1C(=O)/C(=C\c2cccnc2)SC1=S)c1ccco1,"inconclusive [inhibitor, partial curve]",–
CCOc1cccc(NC(=O)CSc2ncc(-c3ccccc3)[nH]2)c1,"inconclusive [inhibitor, single point]",–
CC(=O)Nc1cccc(/C(C)=N/NC(=O)c2cccc(S(=O)(=O)N3CCCC3)c2)c1,"inconclusive [inhibitor, single point]",–
Cc1cccc(C(=O)N2CCCCCC2)c1,–,inactive: 0.279%
COc1ccc(C(=O)Nc2nc3c(s2)CCCC3)cc1Cl,active: 14.6 µM,–
COc1ccc(CN2CCNC(=O)C2CC(=O)N(C)Cc2nccs2)c(OC)c1 (stereo unspecified),–,inactive: -0.667%

Structure (SMILES),Potency,"activity change, negative = growth inhibition"
CCn1cc(C(=O)N[C@@H](C)C(=O)NCCCO)c(=O)c2cc3c(cc21)OCO3,–,inactive: -15.4%
COC(=O)c1cn(C)c2ccc(S(=O)(=O)N(C)C3CCCCC3)cc2c1=O,"inconclusive [inhibitor, single point]",–
O=C(c1ccc2c(c1)OCO2)c1ccc[nH]1,–,inactive: -20.2%
CC(=O)c1ccc(N2CCN(C(=O)CCCCn3c(=O)[nH]c4ccccc4c3=O)CC2)cc1,active: 16.4 µM,–
COc1cnc(-c2ccccc2)nc1Sc1ccccc1,"inconclusive [inhibitor, single point]",–
CCN(CC)CCCNC(=O)c1cc2c(=O)[nH]c3ccc(C)cc3c2s1,"inconclusive [inhibitor, single point]",–
COc1ccc(N(Cc2cc3ccc(C)cc3[nH]c2=O)C(=O)c2ccco2)cc1,active: 20.6 µM,–
Cc1cc(C)cc(NC(=O)CCCn2c3ccccc3c(=O)c3ccccc32)c1,active: 23.1 µM,–
Cc1cccc(-n2ncc3c(N4CCC(C)CC4)ncnc32)c1,"inconclusive [inhibitor, single point]",–
CCSC1=NCCN1S(=O)(=O)c1ccc2ccccc2c1,"inconclusive [inhibitor, single point]",–
COc1ccc(-n2c(C)cc(C(=O)COC(=O)Cn3cnc4ccccc43)c2C)cc1,active: 17.8 µM,–
CCOc1ccc(CCNC(=O)c2ccc(Cl)c(S(=O)(=O)N3CCOCC3)c2)cc1OCC,active: 23.1 µM,–
O=C(NCC(c1ccc(F)cc1)N1CCOCC1)c1c(F)cccc1F (stereo unspecified),–,inactive: -18.9%
CCOc1ccc(NC(=O)c2ccc3c(c2)CCN3S(=O)(=O)c2ccc(Cl)cc2)cc1,"inconclusive [inhibitor, partial curve]",–
CCCn1c(N)c(N(CCOC)C(=O)Cc2ccc(S(=O)(=O)N3CCOCC3)s2)c(=O)[nH]c1=O,–,inactive: -2.82%
Cc1ccc(NC(=O)CCC(=O)N2Cc3ccccc3Oc3ncccc32)cc1F,"inconclusive [inhibitor, single point]",–
Cc1[nH]c2ccccc2c1SCC(=O)N1CCC(C)CC1,"inconclusive [inhibitor, single point]",–
COc1ccccc1OCC(=O)NCC1CCCN(C(=O)c2ccccc2SC)C1 (stereo unspecified),active: 14.6 µM,–
COc1cccc(C(=O)NC(c2ccccc2)C2CCCC2)c1 (stereo unspecified),"inconclusive [inhibitor, single point]",–
C=C(C)CN1CCN(c2c(CCC#N)c(C)c(C#N)c3nc4ccccc4n23)CC1,"inconclusive [inhibitor, single point]",–
O=C(CN1C(=O)NC2(CCCC2)C1=O)NNC(=O)c1ccc(Cl)cc1,–,inactive: -5.49%
CCOC(=O)C1CCCN(S(=O)(=O)c2ccc(OC)c3ccccc23)C1 (stereo unspecified),"inconclusive [inhibitor, partial curve, poor fit]",–
COc1ccc(OC)c(CNC(=O)c2nn(C)c3c2CSc2ccccc2-3)c1,"inconclusive [inhibitor, single point]",–
